Results: the supplement of paper PMC12355420
Where a name gives a salt, the structure may show the parent alone. Some of the results follow. Most values come without repeats; read them as rough.

Test system: HeLa VPS33A reporter cells
Assay: relative cell viability (CellMask signal) vs DMSO (fraction of DMSO); HeLa model of a glycosaminoglycan (GAG) storage disease; KI is knock-in and KO knock-out; SDC1 is syndecan 1; higher = less cytotoxic
Details: 50 µM; 24 h
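Further: primary screen of an FDA-approved drug library in HeLa reporter cells in 96-well format, CellMask signal normalized to DMSO-treated wells set as 1, under 0.5 deemed highly cytotoxic.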

SMILES | relative cell viability
CN(C)CCOc1ccc(/C(=C(/CCCl)c2ccccc2)c2ccccc2)cc1 [Toremifene Citrate] | 0.018
O=C(Nc1nc2cccc(-c3ccc(CN4CCS(=O)(=O)CC4)cc3)n2n1)C1CC1 | 0.328
CC1=C(/C=C/C(C)=C/C=C/C(C)=C/C(=O)O)C(C)(C)CCC1 [Tretinoin (Aberela)] | 0.204
C=C1C(=O)O[C@@H]2/C=C(\C)CC/C=C(\C)CC[C@@H]12 [Costunolide*] | 0.00348
CC/C(=C(\c1ccccc1)c1ccc(OCCN(C)C)cc1)c1ccccc1 [Tamoxifen Citrate] | 0.00953
CCCCOc1cc(C(=O)NCCN(CC)CC)c2ccccc2n1 [Dibucaine (Cinchocaine) HCl] | 0.00554
CO[C@@]12[C@H](COC(N)=O)C3=C(C(=O)C(C)=C(N)C3=O)N1C[C@@H]1N[C@@H]12 [Mitomycin C] | 0.00479
Cc1c(C(=O)NN2CCCCC2)nn(-c2ccc(Cl)cc2Cl)c1-c1ccc(Cl)cc1 [Rimonabant] | 0.48
CC(C)C[C@H](NC(=O)CNC(=O)c1cc(Cl)ccc1Cl)B(O)O | 0.0196
CCCCCCCCCCCCCCCC[N+](C)(C)CCN(Cc1ccc(OC)cc1)c1ncccn1 [Thonzonium Bromide] | 0.0677
CC(C)(C)c1ccc(C(O)CCCN2CCC(C(O)(c3ccccc3)c3ccccc3)CC2)cc1 (stereo not given) [Terfenadine] | 0.00724
Clc1ccc(C(Cn2ccnc2)OCc2csc3c(Cl)cccc23)c(Cl)c1 (stereo not given) [Sertaconazole nitrate] | 0.00422
CCCCCCCCCCCCCCCC[N+](C)(C)C [Cetrimonium Bromide (CTAB)] | 0.00465
Clc1ccc(Cn2c(CN3CCCC3)nc3ccccc32)cc1 [Clemizole hydrochloride] | 0.0155
C=C[C@@H]1C[C@]1(NC(=O)[C@@H]1C[C@@H](Oc2ncc(OC)c3ccc(Cl)cc23)CN1C(=O)[C@@H](NC(=O)OC(C)(C)C)C(C)(C)C)C(=O)NS(=O)(=O)C1CC1 | 0.00633
Cc1c2oc3c(C)ccc(C(=O)N[C@@H]4C(=O)N[C@H](C(C)C)C(=O)N5CCC[C@H]5C(=O)N(C)CC(=O)N(C)[C@@H](C(C)C)C(=O)O[C@@H]4C)c3nc-2c(C(=O)N[C@@H]2C(=O)N[C@H](C(C)C)C(=O)N3CCC[C@H]3C(=O)N(C)CC(=O)N(C)[C@@H](C(C)C)C(=O)O[C@@H]2C)c(N)c1=O [Actinomycin D] | 0.0113
CC[C@H](C)C[C@H](C)CCCCCCCCC(=O)N[C@H]1C[C@@H](O)[C@@H](NCCN)NC(=O)[C@@H]2[C@@H](O)CCN2C(=O)[C@H]([C@H](O)CCN)NC(=O)[C@H]([C@H](O)[C@@H](O)c2ccc(O)cc2)NC(=O)[C@@H]2C[C@@H](O)CN2C(=O)[C@H]([C@@H](C)O)NC1=O [Caspofungin] | 0.0135
CCCOc1ccc2[nH]c(NC(=O)OC)nc2c1 [Oxibendazole] | 0.464
C=CC(=O)Nc1cc(Nc2nccc(-c3cn(C)c4ccccc34)n2)c(OC)cc1N(C)CCN(C)C | 0.00443
Cc1ccc(Sc2ccccc2N2CCNCC2)c(C)c1 | 0.0029

SMILES | relative cell viability
CN1CCC(COc2cnc(-c3cccc(Cn4nc(-c5cccc(C#N)c5)ccc4=O)c3)nc2)CC1 | 0.00442
N#CC[C@H](C1CCCC1)n1cc(-c2ncnc3[nH]ccc23)cn1 | 0.0178
COc1ccc(C[C@@H]2c3cc(OC)c(OC)cc3CC[N@+]2(C)CCC(=O)OCCCCCOC(=O)CC[N@@+]2(C)CCc3cc(OC)c(OC)cc3[C@H]2Cc2ccc(OC)c(OC)c2)cc1OC [Cisatracurium Besylate] | 0.00677
CC1(C)CCC(c2ccc(Cl)cc2)=C(CN2CCN(c3ccc(C(=O)NS(=O)(=O)c4ccc(N[C@H](CCN5CCOCC5)CSc5ccccc5)c(S(=O)(=O)C(F)(F)F)c4)cc3)CC2)C1 [ABT-263 (Navitoclax)] | 0.00408
CO[C@H]1O[C@@H]2O[C@@]3(C)CC[C@H]4[C@H](C)CC[C@@H]([C@H]1C)[C@@]24OO3 [Artemether (SM-224)*] | 0.191
C=CC[C@@H]1/C=C(\C)C[C@H](C)C[C@H](OC)[C@H]2O[C@@](O)(C(=O)C(=O)N3CCCC[C@H]3C(=O)O[C@H](/C(C)=C/[C@@H]3CC[C@@H](O)[C@H](OC)C3)[C@H](C)[C@@H](O)CC1=O)[C@H](C)C[C@@H]2OC [Tacrolimus (FK506)] | 0.00686
CCCC(C(=O)OCCN(CC)CC)(c1ccccc1)c1ccccc1 [SKF 525A (hydrochloride)] | 0.00366
Cc1nc(Nc2ncc(C(=O)Nc3c(C)cccc3Cl)s2)cc(N2CCN(CCO)CC2)n1 | 0.004
Clc1ccc2c(c1)CCc1cccnc1C2=C1CCNCC1 [Desloratadine] | 0.00875
C=C1CC[C@H]2C(=C)CC[C@H]3C(=C)C(=O)O[C@@H]3[C@@H]12 [Dehydrocostus Lactone] | 0.00388
CC1=C(C(=O)OC(C)C)C(c2cccc([N+](=O)[O-])c2)C(C(=O)OC2CN(C(c3ccccc3)c3ccccc3)C2)=C(N)N1 (stereo not given) [Azelnidipine] | 0.00845
CCN(CC)CC#CCOC(=O)C(O)(c1ccccc1)C1CCCCC1 (stereo not given) [Oxybutynin chloride] | 0.0124
CN(C)C/C=C/C(=O)Nc1cc2c(Nc3ccc(F)c(Cl)c3)ncnc2cc1O[C@H]1CCOC1 [Afatinib dimaleate] | 0.00353
CN(C)Cc1c(C(=O)NCCOc2ccc(C(=O)NO)cc2)oc2ccccc12 | 0.024
CS(=O)(=O)CCNCc1ccc(-c2ccc3ncnc(Nc4ccc(OCc5cccc(F)c5)c(Cl)c4)c3c2)o1 [Lapatinib Ditosylate*] | 0.0891
COC(=O)[C@H]1[C@H]2C[C@@H]3c4[nH]c5cc(OC)ccc5c4CCN3C[C@H]2C[C@@H](OC(=O)c2cc(OC)c(OC)c(OC)c2)[C@@H]1OC [Reserpine hydrochloride] | 0.00703
Clc1ccc(COC(Cn2ccnc2)c2ccc(Cl)cc2Cl)cc1 (stereo not given) [Econazole nitrate] | 0.00434
COc1ccc2cc1Oc1ccc(cc1)C[C@H]1c3cc(c(OC)cc3CCN1C)Oc1c(OC)c(OC)cc3c1[C@H](C2)N(C)CC3 [Tetrandrine] | 0.00834
CCCCOc1ccc(C(=O)CCN2CCCCC2)cc1 [Dyclonine HCl] | 0.0238
C=C1/C(=C\C=C2/CCC[C@]3(C)[C@@H]([C@H](C)CCCC(C)C)CC[C@@H]23)C[C@@H](O)C[C@@H]1O [Alfacalcidol] | 0.00503
